According to PMC12631511, “Roots of Indian heliotrope (Heliotropium indicum) produce simple pyrrolizidine alkaloids using the same homospermidine oxidase involved in biosynthesis of complex pyrrolizidine alkaloids in aerial parts” (Plant Biology (Stuttgart, Germany), 2025):

What was measured:
HiCuAO5 [1] = biological target: T1, HiCuAO5 (Heliotropium indicum, UniProt A0A8T9EJA1); settings: 48 h incubation; desalted crude extract of expressing leaves, empty vector control
T1 construct: gene CuAO5

HiCuAO3 = biological target: T2, HiCuAO3 (Heliotropium indicum, UniProt A0A8T9EV85); settings: 48 h incubation
T2 construct: gene CuAO3

HiCuAO5 [2] = biological target: T1, HiCuAO5; settings: desalted crude extract of expressing leaves

Row | SMILES | in vitro incubation, GC-MS product identification (HiCuAO5 [1]) | in vitro incubation, GC-MS product identification (HiCuAO3) | CuAO-specific colorimetric assay (HiCuAO5 [2])
1 | NCCCCNCCCCN [Hspd] | Only in incubations of HiCuAO3 and HiCuAO5 was the bicyclic pyrrolizidine identified | Only in incubations of HiCuAO3 and HiCuAO5 was the bicyclic pyrrolizidine identified | –
2 | NCCCCN [Put] | – | – | the desalted crude protein extract of HiCuAO5 showed activity with Put as substrate
